Experimental findings from the supplement of paper PMC10338343 are described below.

The test system of this assay is MIWI (PIWIL1) piRISC loaded with L1MC piRNA (30 nt). As to the kind of experiment: pre-steady-state target cleavage rate (min^-1); MIWI and MILI are mouse PIWI proteins and EfPiwi is from a freshwater sponge; tags in brackets are library labels; higher = faster piRNA-guided slicing of the target. Conditions: guide: L1MC piRNA 5'p-UAACUAAAUACUAUGCAAGCUGUAGGUCCU
In a few lines: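 Active affinity-purified piRISC (1 nM) loaded with one synthetic guide was mixed with a transcribed, DNA-blocked target RNA library (0.1 nM), with or without 500 nM GTSF1 partner protein, in HEPES–potassium acetate buffer at 33 °C for 0–8 or 0–960 min. Uncleaved targets were sequenced, normalised to depth and to weakly complementary targets, and pooled across three trials, with k3 capped at 0.0001 min^-1. The pre-steady-state cleavage rate was determined with a burst-and-steady-state fit.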

Setting [1] is: auxiliary factor: 500 nM mouse GTSF1.
Setting [2] is: auxiliary factor: none (no GTSF1).

± gives the standard deviation. Only a part is listed here, and it is no random draw.

Take “UCCUGGAUGUCCUUGCAUAGUAUUUAGUUC [g2:g19:cont:t1C]”: the “pre-steady-state target cleavage rate” value by setting is: under setting [1], 0.093 ± 0.011; under setting [2], 0.0107 ± 0.003.
Regarding UCCUGGAUCACCUUGCUUAGUAUUUAGUUA, the “pre-steady-state target cleavage rate” value came out at 0.109 ± 0.02 under setting [1] and 0.00833 ± 0.0029 under setting [2].
Take UCCUGGAUCAGCUUGCAUAGUUAUUUAGUUA: the “pre-steady-state target cleavage rate” value is 0.0152 ± 0.0049 under setting [1] and 0.00627 ± 0.0027 under setting [2].
Turning to UCCUGGUACAGCUUGGAUUGUAUUUAGUUA, the “pre-steady-state target cleavage rate” value runs as follows: under setting [1], 0.0415 ± 0.013; under setting [2], 0.00857 ± 0.0027.
Take UCCUCCUACAGCUAGCAUUGUAUUUAGUUA: the “pre-steady-state target cleavage rate” value by setting is: under setting [1], 0.592 ± 0.023; under setting [2], 0.00657 ± 0.002.
Turning to UCCUGGAUCAGCUUGAUAGUAUUUAGUUA, the “pre-steady-state target cleavage rate” value turned out to be 0.0664 ± 0.007 under setting [1] and 0.00393 ± 0.0017 under setting [2].
In the case of UCCUGCUACAACUUGCAUAGUAUUUAGUUA, the “pre-steady-state target cleavage rate” value under setting [1] is 0.679 ± 0.044 and the “pre-steady-state target cleavage rate” value under setting [2] was determined as 0.0522 ± 0.0072.
For UCGACCUACAGCUUGCAUAGUAUAUACUUA, the “pre-steady-state target cleavage rate” value amounted to 0.192 ± 0.029 under setting [1] and 0.00686 ± 0.0024 under setting [2].
The matching figures for UCGACCUACAGCUUGCAUAGUAUUUAUGUUA: 0.543 ± 0.027 and 0.0467 ± 0.0088.
On to AGGUCCUACUGCUUGCAUAGUAUUUAGUUA, for which the “pre-steady-state target cleavage rate” value worked out at 1.12 ± 0.038 under setting [1] and 0.0889 ± 0.015 under setting [2].
Consider UCCUGGAUGUGCUUGCAUAGUAUUAAGUAA, for which the “pre-steady-state target cleavage rate” value reads like this: under setting [1], 0.0337 ± 0.01; under setting [2], 0.0066 ± 0.0024.
Regarding AGGACCUACAGCUUGCUUAGUUUUUAGUUA, the “pre-steady-state target cleavage rate” value came out at 0.257 ± 0.018 under setting [1] and 0.0183 ± 0.0038 under setting [2].
Consider “UCCUGGAUCAGCUUGCAUAGUAUUUAGUUU [g2:g22:cont:t1U]”, for which the “pre-steady-state target cleavage rate” value by setting is: under setting [1], 1.54 ± 0.089; under setting [2], 0.0667 ± 0.016.
Consider UCCUGGAACAGCUAGCAAAGUAUUUAGUUA, for which the “pre-steady-state target cleavage rate” value was found to be 0.677 ± 0.029 under setting [1] and 0.0102 ± 0.004 under setting [2].
For the sequence UCCUGGAUGUGCUUGCAUAGUAAAUAGUUA, the “pre-steady-state target cleavage rate” value worked out at 0.00946 ± 0.0041 under setting [1] and 0.00369 ± 0.0032 under setting [2].
UCCUGGUACAGCUUGCAUAGUAUUGUAGUUA: the “pre-steady-state target cleavage rate” value is, setting by setting: under setting [1], 0.248 ± 0.031; under setting [2], 0.0142 ± 0.0037.
The like results for “UCCUGCUACAGCUUGCAUAGUAUUUAGUUC [g2:g25:cont:t1C]” were, in that order, 0.861 ± 0.048 and 0.0453 ± 0.0097.
Consider UCCACCUACAGCUUGCAUAGUAGUUUAGUUA, for which the “pre-steady-state target cleavage rate” value runs as follows: under setting [1], 0.357 ± 0.019; under setting [2], 0.00828 ± 0.0029.
Consider UGGUCCUACAGCUUGCAUACUAUUUAGUUA, for which the “pre-steady-state target cleavage rate” value reads like this: under setting [1], 0.366 ± 0.021; under setting [2], 0.0325 ± 0.0053.
Turning to UCCUGGAUGUGCUUGCAUAGUAUGUUAGUUA, the “pre-steady-state target cleavage rate” value by setting is: under setting [1], 0.0837 ± 0.011; under setting [2], 0.0113 ± 0.0038.
Regarding UCCACCUACAGUCUUGCAUAGUAUUUAGUUA, the “pre-steady-state target cleavage rate” value came out at 0.731 ± 0.071 under setting [1] and 0.0303 ± 0.006 under setting [2].
In the case of UCCACCUACAGCUUGCAUAGUACUUUAGUUA, the “pre-steady-state target cleavage rate” value under setting [1] amounted to 0.447 ± 0.035 and the “pre-steady-state target cleavage rate” value under setting [2] worked out at 0.00964 ± 0.0027.
UCGACCUAGAGCUUGCAAAGUAUUUAGUUA: the “pre-steady-state target cleavage rate” value is 1.26 ± 0.04 under setting [1] and 0.0315 ± 0.0064 under setting [2].
For the sequence UCCUGGAUGUGCUAGCAUAGUAAUUAGUUA, the “pre-steady-state target cleavage rate” value runs as follows: under setting [1], 0.00758 ± 0.0032; under setting [2], 0.00345 ± 0.0031.
UCCUGGAUGUCCUUGCAUAGUAUUUAGUA: the “pre-steady-state target cleavage rate” value runs as follows: under setting [1], 0.0102 ± 0.0043; under setting [2], 0.004 ± 0.0026.
The matching figures for UCCUGGAUGUGCUUGCAUAGUCUUUAGUUA: 0.151 ± 0.016 and 0.0403 ± 0.0097.
Consider UCCACCUCACAGCUUGCAUAGUAUUUAGUUA, for which the “pre-steady-state target cleavage rate” value is, setting by setting: under setting [1], 1.06 ± 0.051; under setting [2], 0.0701 ± 0.012.
Regarding UCCUGCUACAGCUUGCAUAGUAUCUAGUUA, the “pre-steady-state target cleavage rate” value reads like this: under setting [1], 0.53 ± 0.04; under setting [2], 0.0388 ± 0.0058.
For the sequence UCCUGGAUGUGCUUGCAUAGUAUAUAGUUA, the “pre-steady-state target cleavage rate” value is, setting by setting: under setting [1], 0.0692 ± 0.0098; under setting [2], 0.0151 ± 0.0036.
For the sequence UCCUGGAACAGUUUGCAUAGUAUUUAGUUA, the “pre-steady-state target cleavage rate” value is 1.2 ± 0.044 under setting [1] and 0.0699 ± 0.013 under setting [2].
In the case of UCCUGGUACAGCUUGCAUAGUAUCUAGUUA, the “pre-steady-state target cleavage rate” value under setting [1] was found to be 0.274 ± 0.04 and the “pre-steady-state target cleavage rate” value under setting [2] came to 0.0282 ± 0.0066.
With UGGCCCUACAGCUUGCAUAGUAUUUAGUUA, the “pre-steady-state target cleavage rate” value is 1.39 ± 0.11 under setting [1] and 0.0833 ± 0.015 under setting [2].
In the case of UCCACCUACAGCUUUCAUAGUAUUUAGUUA, the “pre-steady-state target cleavage rate” value reads like this: under setting [1], 0.393 ± 0.034; under setting [2], 0.0122 ± 0.0019.
The matching figures for UCCUGGAACAGCUUGCAUAGUAUUGUAGUUA: 0.368 ± 0.022 and 0.0236 ± 0.0056.
With UCCUGGAAAAGCUUGCAUAGUAUUUAGUUA, the “pre-steady-state target cleavage rate” value is, setting by setting: under setting [1], 0.987 ± 0.053; under setting [2], 0.0622 ± 0.013.
UCCUGGAUGUCGUUGCAUAGUGUUUAGUUA: the “pre-steady-state target cleavage rate” value by setting is: under setting [1], 0.00752 ± 0.0034; under setting [2], 0.00364 ± 0.0032.
Consider UCCUGCUACAGCAUGCAUAGUAUUUAGAUA, for which the “pre-steady-state target cleavage rate” value is 0.332 ± 0.037 under setting [1] and 0.00491 ± 0.0026 under setting [2].
The matching figures for AGGACCUUGAGCUUGCAUAGUAUUUAGUAA: 0.941 ± 0.062 and 0.0569 ± 0.015.
Take UCCUGGAACACGCUUGCAUAGUAUUUAGUUA: the “pre-steady-state target cleavage rate” value amounted to 0.904 ± 0.039 under setting [1] and 0.0525 ± 0.0094 under setting [2].
Consider UGGACCUACAGCUAGCAUAGAAUUUAGUUA, for which the “pre-steady-state target cleavage rate” value under setting [1] is 0.382 ± 0.022 and the “pre-steady-state target cleavage rate” value under setting [2] is 0.00986 ± 0.0039.
Consider AGGACCUUGUGCUUGCAUAGUAUUUUCAAA, for which the “pre-steady-state target cleavage rate” value is 0.0677 ± 0.015 under setting [1] and 0.00236 ± 0.0022 under setting [2].
For UCCUGGAUGAGCUUGCAAAGUAUUUAGUUA, the “pre-steady-state target cleavage rate” value under setting [1] was found to be 0.725 ± 0.047 and the “pre-steady-state target cleavage rate” value under setting [2] turned out to be 0.0428 ± 0.011.
The matching figures for UCCUGGAACAGCCUGCAUAGUAUUUAGUUA: 0.989 ± 0.053 and 0.0552 ± 0.01.
With UCCUGGUACUGCUUGCAUAGUAUUUACUUA, the “pre-steady-state target cleavage rate” value under setting [1] was 0.038 ± 0.017 and the “pre-steady-state target cleavage rate” value under setting [2] came out at 0.00656 ± 0.0029.
Regarding UCCAGCUACAGCUUGCAUAGUAUUUAGAAA, the “pre-steady-state target cleavage rate” value stood at 0.381 ± 0.062 under setting [1] and 0.00449 ± 0.0021 under setting [2].
As to AGGACCUACAGCUUGCAAAGUAUUUAGAAA, the “pre-steady-state target cleavage rate” value runs as follows: under setting [1], 0.432 ± 0.045; under setting [2], 0.00862 ± 0.0026.
For the sequence UCCUGGAUCAGCUUGCAUAGUAUUUACAUA, the “pre-steady-state target cleavage rate” value under setting [1] is 0.111 ± 0.017 and the “pre-steady-state target cleavage rate” value under setting [2] came to 0.00862 ± 0.0023.
For UCCUCCAUACAGCUUGCAUAGUAUUUAGUUA, the “pre-steady-state target cleavage rate” value under setting [1] amounted to 0.364 ± 0.019 and the “pre-steady-state target cleavage rate” value under setting [2] was 0.0335 ± 0.0051.
Consider UCCUGGAACACCUUGCAUAGUAUUUACUUA, for which the “pre-steady-state target cleavage rate” value turned out to be 0.155 ± 0.034 under setting [1] and 0.00856 ± 0.0028 under setting [2].
The matching figures for UGGAGGAACAGCUUGCAUAGUAUUUUCAAA: 0.158 ± 0.026 and 0.00441 ± 0.0026.
The like results for UCCUGGAACAGGUUGCAUAGUAUUUACUUA were, in that order, 0.164 ± 0.023 and 0.0109 ± 0.0022.
UCCUGCUACAGCAUGCUUAGUAUUUAGUUA: the “pre-steady-state target cleavage rate” value reads like this: under setting [1], 0.819 ± 0.07; under setting [2], 0.00897 ± 0.0027.
Consider UCGACGAACAGCUUGCAUAGUAUUUACAAA, for which the “pre-steady-state target cleavage rate” value runs as follows: under setting [1], 0.4 ± 0.048; under setting [2], 0.00547 ± 0.0022.
